Measurements taken from patent US6969449B2, “Multi-well plate and electrode assemblies for ion channel assays” (Vertex Pharmaceuticals (San Diego) LLC, priority 2000, dated 2005).

Tested on: NaV2 sodium channel
Settings: for dependence of channel block on time window / shift of dose-response curves (use dependence): CHO NaV2, 20 Hz stimulus, 1 second vs 3 seconds

Row | SMILES | dependence of channel block on time window / shift of dose-response curves (use dependence) | inhibition of response from cells stimulated above 90 V/cm | EC50 (read-out: Electric field stimulation EC50) [nM]
1 | CCCCN1CCCCC1C(=O)Nc1c(C)cccc1C (centres unmarked) [Bupivacaine] | smaller amount of shift | – | –
2 | NC1=N[C@H](O)[C@H]2[C@H]3O[C@]4(O)O[C@@H]([C@@H](O)[C@@]2(N1)[C@@H]4O)[C@]3(O)CO [TTX, tetrodotoxin] | – | could not | 6
3 | CCN(CC)CC(=O)Nc1c(C)cccc1C [Lidocaine] | smaller amount of shift | – | –
4 | CCCCNc1ccc(C(=O)OCCN(C)C)cc1 [Tetracaine, tetracaine] | an order of magnitude stronger at 3 seconds than at 1 second | – | –
